One series has as its system Mycobacterium avium. The series can be described thus: disc-plate assay, Mycobacterium avium. As to conditions: for zone of inhibition at 1000 µg/mL: Mycobacterium avium, read-out: inhibition-zone diameter.
The subject of a further series is Pseudomonas solanacearum. Kind of series: microbe, parasite or virus in culture. As to conditions: Ralstonia solanacearum, read-out: inhibition-zone diameter.
The subject of the next series is Candida albicans. Kind of series: microbe, parasite or virus in culture.
The conditions of series [1]: for solubility in polar organic solvents: such as ethyl acetate, ethanol, methanol, chloroform.
The next series has as its system Bacillus subtilis. Kind of series: microbe, parasite or virus in culture.
The subject of a further series is Fusarium moniliforme. Kind of series: microbe, parasite or virus in culture.
Series [2] concerns Trichophyton mentagrophytes. The series can be described thus: microbe, parasite or virus in culture.
In another series the test system is Staphylococcus aureus. The series can be described thus: microbe, parasite or virus in culture. As to conditions: read-out: inhibition-zone diameter.
For the next series, the system named is Sarcina lutea. The series can be described thus: microbe, parasite or virus in culture. The note with it: Micrococcus luteus, read-out: inhibition-zone diameter.
The next series concerns Serratia marcescens. The series can be described thus: microbe, parasite or virus in culture. As to conditions: read-out: inhibition-zone diameter.
Series [3] deals with Saccharomyces pastorianum. The series can be described thus: microbe, parasite or virus in culture. The note with it: read-out: inhibition-zone diameter.
The subject of the next series is Neurospora crassa. The series can be described thus: microbe, parasite or virus in culture. The note with it: read-out: inhibition-zone diameter.
Where [4] appears, read: Trichophyton mentagrophytes, read-out: inhibition-zone diameter.

Take `CN1C(=O)C2(Cc3ccccc3)SSC1(CO)C(=O)N2C` (single isomer, unassigned) [Factor A, 3-benzyl-6-(hydroxymethyl)-1,4-dimethyl-3,6-epidithio-2,5-piperazinedione]: the inhibition-zone diameter entry with Mycobacterium avium (0.1 mg./ml.) is given as “tr (trace)”. The zone of inhibition at 1000 µg/mL in the series with Pseudomonas solanacearum worked out at 13 mm. Moreover, the inhibition-zone diameter result with Candida albicans (0.1 mg./ml.) is given as “tr (trace)”. In series [1], the “solubility in polar organic solvents” value was “soluble” and the solubility in water entry is “relatively insoluble”.
Consider `CC1CCCCCCCCCC(OC(=O)CCC(=O)O)C(=O)/C=C/C(=O)O1` (centres unmarked) [Factor B, mono(16-methyl-2,5-dioxooxacyclohexadec-3-en-6-yl) succinate], for which the zone of inhibition at 1000 µg/mL in the series on Mycobacterium avium was 9 mm. For the same compound, the inhibition-zone diameter result (with Bacillus subtilis (0.1 mg./ml.); with Candida albicans (1.0 mg./ml.); in the series on Fusarium moniliforme (1.0 mg./ml.); in series [2] (0.1 mg./ml.)) was “tr (trace)” in each case. Besides, the “solubility in polar organic solvents” value in series [1] is listed as “slightly soluble”. In series [1], the solubility in water result is given as “relatively insoluble”.
On to `CN1C(=O)C2(Cc3ccccc3)SSSSC1(CO)C(=O)N2C` (centres unmarked) [Factor C, 3-benzyl-6-(hydroxymethyl)-1,4-dimethyl-3,6-epitetrathio-2,5-piperazinedione], for which the zone of inhibition at 1000 µg/mL with Staphylococcus aureus is 20 mm; in the series on Mycobacterium avium, 11 mm; in the series with Bacillus subtilis (Bacillus subtilis, read-out: inhibition-zone diameter) it was 20 mm; in the series on Sarcina lutea, 26 mm; in the series with Serratia marcescens it was 14 mm; in [3], 25 mm. Besides, the zone of inhibition at 1000 µg/mL in the series on Neurospora crassa worked out at 22 mm; with Candida albicans (Candida albicans, read-out: inhibition-zone diameter) it was 23 mm; in the series with Fusarium moniliforme (Fusarium verticillioides, read-out: inhibition-zone diameter) it was 8 mm; in [2] (setting [4]), 19 mm. In addition, the zone of inhibition at 100 µg/mL came out at 14 mm with Sarcina lutea and 12 mm in series [2] (setting [4]). Besides, the “solubility in polar organic solvents” value in series [1] is reported as “soluble”. For the same compound, the solubility in water result in series [1] was “relatively insoluble”.

For the origin of these results see patent publication US3954972A, “Antibiotic A-26771 factor” (Eli Lilly and Company, priority 1975, dated 1976).
